{"source": "PubChem BioAssay AID504339", "about": "(National Center for Advancing Translational Sciences (NCATS), 2011)", "note": "Screen size: about 390,000 compounds; about 17,000 (4.4%) were called active. Inconclusive results, whose numbers are uncertain, are shown with a selection of clear calls. Calls come from the whole dose curve; as a rule, active = well fitted inhibition curve with a large enough effect; inconclusive = small, poorly fitted or top-dose-only effect; inactive = no such curve, though single readings can be large or run the other way. Where the call is inconclusive, the potency comes from a doubtful curve fit. % is set by controls: 0 for no effect and ±100 for the full control effect; potency is the fitted concentration of half-maximal effect; tags give direction and shape of the fitted curve.", "data": [{"molecular_target": "Lysine-specific demethylase 4A (Homo sapiens) (UniProt O75164)", "sequence (O75164 whole entry, looked up, the tested form may be a part)": "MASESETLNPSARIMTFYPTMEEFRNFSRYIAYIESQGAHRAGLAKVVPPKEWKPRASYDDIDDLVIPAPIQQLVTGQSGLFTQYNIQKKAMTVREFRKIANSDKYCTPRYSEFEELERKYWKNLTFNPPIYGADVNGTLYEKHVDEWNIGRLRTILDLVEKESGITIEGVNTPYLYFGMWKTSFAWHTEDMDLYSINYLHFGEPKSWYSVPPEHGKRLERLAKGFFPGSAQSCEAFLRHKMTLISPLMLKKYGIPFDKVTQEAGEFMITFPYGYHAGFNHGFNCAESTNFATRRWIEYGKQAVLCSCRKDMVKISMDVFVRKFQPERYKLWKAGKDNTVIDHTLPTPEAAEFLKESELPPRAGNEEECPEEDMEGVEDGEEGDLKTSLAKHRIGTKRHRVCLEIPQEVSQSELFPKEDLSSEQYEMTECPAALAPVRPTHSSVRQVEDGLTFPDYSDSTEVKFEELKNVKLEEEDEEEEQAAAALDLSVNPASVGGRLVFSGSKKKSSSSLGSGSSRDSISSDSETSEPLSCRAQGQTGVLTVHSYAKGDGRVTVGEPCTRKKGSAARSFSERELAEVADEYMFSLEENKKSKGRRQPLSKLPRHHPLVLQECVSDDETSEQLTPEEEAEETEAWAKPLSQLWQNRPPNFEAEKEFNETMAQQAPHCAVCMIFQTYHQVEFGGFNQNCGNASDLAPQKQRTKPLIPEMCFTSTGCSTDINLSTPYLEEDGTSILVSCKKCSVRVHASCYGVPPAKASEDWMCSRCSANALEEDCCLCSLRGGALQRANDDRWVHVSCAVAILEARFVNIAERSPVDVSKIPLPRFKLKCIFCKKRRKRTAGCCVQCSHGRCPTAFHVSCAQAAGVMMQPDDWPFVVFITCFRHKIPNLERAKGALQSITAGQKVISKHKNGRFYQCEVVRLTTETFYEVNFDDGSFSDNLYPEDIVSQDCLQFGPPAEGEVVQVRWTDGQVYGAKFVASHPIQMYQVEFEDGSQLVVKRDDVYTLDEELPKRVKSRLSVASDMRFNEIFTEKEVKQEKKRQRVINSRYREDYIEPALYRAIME", "test": "qHTS Assay for Inhibitors of JMJD2A-Tudor Domain; note: nearly all actives have a fitted effect of over 50% in size", "conditions": "AlphaScreen JMJD2A-Tudor / H3K4me3 peptide binding; activity change, negative = inhibition: at 114 µM (top of the series)", "values": [{"smiles": "Cc1ccc(CN(C)C2CCN(C)CC2)cc1", "Potency": "inconclusive: 31.6 µM [inhibitor, partial curve]"}, {"smiles": "COCc1cc(C)n(CC(=O)Nc2ccccc2OC)c(=O)c1C#N", "Potency": "inconclusive: 39.8 µM [inhibitor, single point]"}, {"smiles": "O=[N+]([O-])c1ccc(-c2nc(C(Cl)Cl)c3ccccc3n2)cc1", "Potency": "inactive"}, {"smiles": "COc1cc(OC)c(OC)cc1CNCc1ccco1", "Potency": "active: 2.82 µM"}, {"smiles": "Cc1cccc(N2C(=O)Cc3ccccc3C2=O)c1", "Potency": "inconclusive: 0.891 µM [inhibitor, full curve]"}, {"smiles": "CC(=O)NC(c1cccs1)c1cc([N+](=O)[O-])c2cccnc2c1O", "note": "(configuration not stated)", "Potency": "active: 35.5 µM"}, {"smiles": "CCOc1ccc(CC(=O)Nc2c(C(=O)c3ccccc3)oc3ccc(Cl)cc23)cc1OCC", "Potency": "inactive"}, {"smiles": "CSC(=S)N/N=C(\\C)c1ccc(Br)cc1", "Potency": "inconclusive: 17.8 µM [inhibitor, partial curve]"}, {"smiles": "COc1cc(OC)c2ccc(=O)oc2c1C(CC(=O)N1CCCCC1)c1ccc2c(c1)OCO2", "note": "(configuration not stated)", "Potency": "inconclusive: 79.4 µM [inhibitor, partial curve]"}, {"smiles": "O=C(CN1CCN(c2ccccc2O)CC1)Nc1cc(S(=O)(=O)N2CCCC2)ccc1Cl", "Potency": "inconclusive: 39.8 µM [inhibitor, partial curve]"}, {"smiles": "Nc1c(/C=C2/C=CC(=O)C(O)=C2)c(=O)nc2sc(CC(=O)N3CCCCC3)nn12", "Potency": "inconclusive: 1.78 µM [inhibitor, partial curve, poor fit]"}, {"smiles": "Cc1cc2c(cc1S(=O)(=O)Nc1cccc(Cl)c1C)n(C)c(=O)c(=O)n2C", "Potency": "inactive"}, {"smiles": "Cc1ccc(NS(=O)(=O)c2ccc(NC(=O)CN(c3cc([N+](=O)[O-])ccc3C)S(C)(=O)=O)cc2)c(C)c1", "Potency": "inconclusive: 22.4 µM [inhibitor, full curve]"}, {"smiles": "Cc1cccc2nc(-c3ccccn3)c(Nc3ccc(F)cc3)n12", "Potency": "active: 44.7 µM"}, {"smiles": "Cc1cc(C)c2nc(N3C(=O)C(O)=C(C(=O)c4ccco4)C3c3ccco3)sc2c1", "note": "(configuration not stated)", "Potency": "active: 50.1 µM"}, {"smiles": "C/C(=N\\N=c1/scc(C)n1Cc1ccco1)c1cccc([N+](=O)[O-])c1", "Potency": "active: 25.1 µM"}, {"smiles": "COc1ccccc1CCNC(=O)C1CCC(=O)N(Cc2cccc(F)c2)C1", "note": "(configuration not stated)", "Potency": "inconclusive: 15.8 µM [inhibitor, single point]"}, {"smiles": "Cc1cc(C)c(N=Cc2c(O)n(-c3nccs3)c(=O)c3ccccc23)c(C)c1", "Potency": "inconclusive: 20 µM [inhibitor, partial curve]"}, {"smiles": "CC(CNC(=O)c1cnn(-c2ccc(F)cc2)c1-n1cccc1)c1ccccc1", "note": "(configuration not stated)", "Potency": "inactive"}, {"smiles": "O=C(C1CCCN(C2CC(=O)N(c3ccc(F)cc3)C2=O)C1)N1CCCC1", "note": "(configuration not stated)", "Potency": "active: 31.6 µM"}, {"smiles": "CC1=C(C#N)C(=O)NC(=O)/C1=C/c1ccc(-c2ccc(S(N)(=O)=O)cc2)o1", "Potency": "active: 70.8 µM"}, {"smiles": "O=C(c1ccc(Br)o1)N1CCN(c2ccc3nnc(-c4ccc(F)cc4)n3n2)CC1", "Potency": "inconclusive: 89.1 µM [inhibitor, single point]"}, {"smiles": "O=C(NC1CCCCC1)N1CCc2ccccc2C1", "Potency": "inactive"}, {"smiles": "Cc1ccc(C)c(Nc2nc(NCc3ccco3)nc3nccnc23)c1", "Potency": "inactive"}, {"smiles": "NCCc1c(-c2ccccc2)n(-c2ccccc2)c2ccccc12", "Potency": "active: 31.6 µM"}, {"smiles": "Clc1cc(Br)ccc1OCCCn1ccnc1", "Potency": "active: 22.4 µM"}, {"smiles": "S=C(c1cccs1)N1CCN(c2ccccc2)CC1", "Potency": "inconclusive: 31.6 µM [inhibitor, full curve]"}, {"smiles": "Nc1ccc(N2CCN(C(=O)c3cccs3)CC2)cc1", "Potency": "inactive"}, {"smiles": "Clc1ccccc1CSc1nnc(-c2ccccn2)n1Cc1ccco1", "Potency": "active: 56.2 µM"}, {"smiles": "Cc1nc(N)sc1-c1csc(NCc2ccccc2)n1", "Potency": "inconclusive: 56.2 µM [inhibitor, partial curve]"}, {"smiles": "CNc1ccccc1C(C)(C)c1cc(C)[nH]n1", "Potency": "inconclusive: 15.8 µM [inhibitor, partial curve, poor fit]"}, {"smiles": "O=C(O)CCc1ccc(-c2cccs2)n1NC(=O)c1ccc(Cl)cc1Cl", "Potency": "inactive"}, {"smiles": "O=C(NCc1ccccc1F)C(=O)NCC(c1ccc2c(c1)OCO2)N1CCOCC1", "note": "(configuration not stated)", "Potency": "inconclusive: 79.4 µM [inhibitor, partial curve]"}, {"smiles": "Cc1ccccc1C(=O)N1CCN(c2ccc(NC(=S)NC(=O)c3cccs3)cc2)CC1", "Potency": "inconclusive: 50.1 µM [inhibitor, partial curve]"}, {"smiles": "O=c1nc(NO)ccn1C1CCCO1", "note": "(configuration not stated)", "Potency": "active: 8.91 µM"}, {"smiles": "CCn1nc(C)c(CNC(=O)c2cc(COc3cncc(Cl)c3)on2)c1C", "Potency": "inconclusive: 15.8 µM [inhibitor, full curve]"}, {"smiles": "Cc1cc(C)n(-c2nnc3c4ccccc4n(C)c3n2)n1", "Potency": "active: 79.4 µM"}, {"smiles": "Cc1[nH]c2ccc(-c3n[nH]c(=S)n3Cc3ccccc3)cc2c1C", "Potency": "inconclusive: 70.8 µM [inhibitor, single point]"}, {"smiles": "Cc1cc(C)n(-c2nnc(C)c(=O)[nH]2)n1", "Potency": "active: 1 µM"}, {"smiles": "CSc1ccc(CN2CCCCCC2)cc1", "Potency": "active: 5.01 µM"}, {"smiles": "COCCNC(=S)N(CCc1c(C)[nH]c2ccc(Cl)cc12)Cc1cccnc1", "Potency": "inconclusive: 50.1 µM [inhibitor, partial curve]"}, {"smiles": "[O-]/C(=C(\\C(=S)Nc1ccc(Cl)cc1)[n+]1ccccc1)c1ccc(OC(F)F)cc1", "Potency": "inconclusive: 50.1 µM [inhibitor, partial curve]"}, {"smiles": "O=S(=O)(c1ccc(OC(F)(F)F)cc1)N1CCN(c2nc(-c3cccs3)nc3ccccc23)CC1", "Potency": "inactive"}, {"smiles": "O=C(Cc1ccccc1)NCC(=O)N1CCCCC1", "Potency": "inactive"}, {"smiles": "O=C(NCC1CCCO1)C(C(=O)c1ccc(F)cc1)n1ccccc1=O", "note": "(configuration not stated)", "Potency": "inconclusive: 79.4 µM [inhibitor, partial curve]"}, {"smiles": "Cc1cc(C(=O)COC(=O)CC2Sc3ccccc3NC2=O)c(C)n1-c1ccccc1", "note": "(configuration not stated)", "activity change, negative = inhibition": "inconclusive: -43.5% [inhibitor]"}, {"smiles": "O=C(Nc1ccc2[nH]c3c(c2c1)CCCC3)c1ccco1", "Potency": "inconclusive: 56.2 µM [inhibitor, partial curve]"}, {"smiles": "C=CCn1c(SCc2cccc(C#N)c2)nnc1-c1ccccc1O", "Potency": "inconclusive: 25.1 µM [inhibitor, full curve]"}, {"smiles": "Cc1csc(=O)n1CCC(=O)OCC(=O)Nc1cc(Cl)ccc1[N+](=O)[O-]", "Potency": "inconclusive: 79.4 µM [inhibitor, partial curve]"}, {"smiles": "C=CCn1c(SCC(=O)c2cc(C)n(CC3CCCO3)c2C)nnc1-c1ccccc1", "note": "(configuration not stated)", "Potency": "inconclusive: 100 µM [inhibitor, partial curve]"}, {"smiles": "CCc1ccc(/C=C2/SC(=S)N(CCC(=O)NCCCN3CCOCC3)C2=O)cc1", "Potency": "inconclusive: 44.7 µM [inhibitor, partial curve]"}, {"smiles": "O=C(c1ccccc1)N1CCN(Cc2ccccc2Br)CC1", "Potency": "active: 5.01 µM"}, {"smiles": "COc1ccc(Br)cc1C(=O)O", "Potency": "inactive"}, {"smiles": "O=[N+]([O-])c1cccc2nc(-c3ccccc3)c(-c3ccccc3)nc12", "Potency": "inconclusive: 39.8 µM [inhibitor, partial curve]"}, {"smiles": "Cc1cccc(N=N/C(=C\\O)C(=O)c2ccc(Br)cc2)c1", "Potency": "inconclusive: 20 µM [inhibitor, full curve]"}, {"smiles": "C=C(C)Cn1c(SCC(=O)N/N=C/c2ccccc2OCC(=O)O)nnc1-c1ccc(Br)cc1", "Potency": "inactive"}, {"smiles": "COc1ccc(C(CNc2ccc(S(=O)(=O)N3CCCC3)cc2[N+](=O)[O-])N2CCCC2)cc1", "note": "(configuration not stated)", "Potency": "inconclusive: 44.7 µM [inhibitor, single point]"}, {"smiles": "CCCCNC(=O)Nc1ccccc1C(=O)NCCC", "Potency": "inactive"}, {"smiles": "COc1ccc(C=CC(=O)c2ccc(OC)c(OC)c2O)cc1OC", "Potency": "active: 50.1 µM"}, {"smiles": "CN(C)S(=O)(=O)N1CCN(c2ccc([N+](=O)[O-])c(NC3CC3)c2)CC1", "Potency": "inconclusive: 44.7 µM [inhibitor, partial curve]"}, {"smiles": "CCOC(=O)c1[nH]c(C)c(C(=O)N2CCN(c3cccc(Cl)c3)CC2)c1C", "Potency": "inconclusive: 44.7 µM [inhibitor, partial curve]"}, {"smiles": "O=C(CCc1ccc(S(=O)(=O)NC2CCCCC2)cc1)NCc1cccnc1", "Potency": "inactive"}, {"smiles": "CCN(CC(=O)NCc1cccs1)C(=O)c1ccc(Cl)c(Cl)c1", "Potency": "inactive"}, {"smiles": "CN(C)CCOc1cccc(Br)c1", "Potency": "active: 3.55 µM"}, {"smiles": "Fc1cccc(CCN2CCNC[C@H]2Cc2cccc3ccccc23)c1", "Potency": "inactive"}, {"smiles": "CC1(C)OC(=O)C(=Cc2ccc(-c3ccc(Cl)c(C(=O)O)c3)o2)C(=O)O1", "activity change, negative = inhibition": "inconclusive: -42.8% [inhibitor]"}, {"smiles": "O=C(CCS(=O)(=O)c1ccc(Br)cc1)NCCc1ccc(Cl)cc1", "Potency": "active: 63.1 µM"}, {"smiles": "CCc1ccc(-c2cc(C(=O)N/N=C/c3c[nH]c4ccccc34)[nH]n2)cc1", "Potency": "inconclusive: 28.2 µM [inhibitor, partial curve]"}, {"smiles": "Oc1ccc(N2CCN(Cc3nc4ccccc4[nH]3)CC2)cc1", "Potency": "active: 50.1 µM"}, {"smiles": "CCOC(=O)c1ccccc1NC(=O)C1CC(=O)N(C(C)(C)C)C1", "note": "(configuration not stated)", "Potency": "inconclusive: 100 µM [inhibitor, single point]"}, {"smiles": "O=C(O)C1CC=CC2CCN(C3CCCCC3)C(=O)C21", "note": "(configuration not stated)", "Potency": "inactive"}, {"smiles": "Cc1cc(C)nc(Nc2ncc(O)n2-c2ccccc2)n1", "Potency": "active: 56.2 µM"}, {"smiles": "CC(C)(C)OC(=O)N1CCN(C(=O)Cn2cc(CCO)nn2)CC1", "Potency": "inactive"}, {"smiles": "Cc1cc(Br)cc(C)c1OCC(=O)NNC(=O)CCC(=O)NCc1ccccc1", "Potency": "inactive"}, {"smiles": "CC(C)=NNc1nc(-c2ccc([N+](=O)[O-])cc2)cs1", "Potency": "inactive"}, {"smiles": "Cc1cc(S(=O)(=O)NC2CCCCC2)ccc1OCC(=O)NCc1ccccn1", "Potency": "active: 28.2 µM"}, {"smiles": "CCC1CCc2c(sc(NC(=O)c3ccco3)c2C(N)=O)C1", "note": "(configuration not stated)", "Potency": "inconclusive: 100 µM [inhibitor, single point]"}]}]}
